Test results reported in article PMC9911399, “Two distinct binding modes provide the RNA-binding protein RbFox with extraordinary sequence specificity”.
Numbering of substitutions follows the chain as printed; changes in the protein carry UniProt numbers. The list shows a part of the results.

B1: UAUUCCG (DNA:RNA)
RNA: GGGAGACCGGAAUUCAGAUUGUCCUAUUCCGUUAAAUCCCGUCGUAGCCACCA
DNA 1: CAATCTGAATTCCGGTCTCCC
DNA 2: TGGTGGCTACGACGGGATT
B2: UCUCAUG (DNA:RNA)
RNA: B1 RNA with A26C, U28C, C29A, C30U
DNA 1: CAATCTGAATTCCGGTCTCCC
DNA 2: TGGTGGCTACGACGGGATT
B3: CCGGAAA (DNA:RNA)
RNA: GGGAGACCGGAAUUCAGAUUGUCCCCGGAAAUUAAAUCCCGUCGUAGCCACCA
DNA 1: CAATCTGAATTCCGGTCTCCC
DNA 2: TGGTGGCTACGACGGGATT
B4: AGUACUA (DNA:RNA)
RNA: B1 RNA with U25A, A26G, U28A, C30U, G31A
DNA 1: CAATCTGAATTCCGGTCTCCC
DNA 2: TGGTGGCTACGACGGGATT
B5: UUGCUGG (DNA:RNA)
RNA: B1 RNA with A26U, U27G, U28C, C29U, C30G
DNA 1: CAATCTGAATTCCGGTCTCCC
DNA 2: TGGTGGCTACGACGGGATT
B6: GAUCCUG (DNA:RNA)
RNA: B1 RNA with U25G, U28C, C30U
DNA 1: CAATCTGAATTCCGGTCTCCC
DNA 2: TGGTGGCTACGACGGGATT
B7: AGGACAG (DNA:RNA)
RNA: B3 RNA with C25A, C26G, G28A, A29C, A31G
DNA 1: CAATCTGAATTCCGGTCTCCC
DNA 2: TGGTGGCTACGACGGGATT
B8: AGUGCAA (DNA:RNA)
RNA: B3 RNA with C25A, C26G, G27U, A29C
DNA 1: CAATCTGAATTCCGGTCTCCC
DNA 2: TGGTGGCTACGACGGGATT
B9: CCGCGGG (DNA:RNA)
RNA: B3 RNA with G28C, A29G, A30G, A31G
DNA 1: CAATCTGAATTCCGGTCTCCC
DNA 2: TGGTGGCTACGACGGGATT
B10: UGAGGGA (DNA:RNA)
RNA: B3 RNA with C25U, C26G, G27A, A29G, A30G
DNA 1: CAATCTGAATTCCGGTCTCCC
DNA 2: TGGTGGCTACGACGGGATT
B11: GAGCUAU (DNA:RNA)
RNA: B3 RNA with C25G, C26A, G28C, A29U, A31U
DNA 1: CAATCTGAATTCCGGTCTCCC
DNA 2: TGGTGGCTACGACGGGATT
B12: GCACCGC (DNA:RNA)
RNA: B3 RNA with C25G, G27A, G28C, A29C, A30G, A31C
DNA 1: CAATCTGAATTCCGGTCTCCC
DNA 2: TGGTGGCTACGACGGGATT
B13: CAAAAUC (DNA:RNA)
RNA: B3 RNA with C26A, G27A, G28A, A30U, A31C
DNA 1: CAATCTGAATTCCGGTCTCCC
DNA 2: TGGTGGCTACGACGGGATT
B14: AUGGCAG (DNA:RNA)
RNA: B3 RNA with C25A, C26U, A29C, A31G
DNA 1: CAATCTGAATTCCGGTCTCCC
DNA 2: TGGTGGCTACGACGGGATT
B15: AGGACAU (DNA:RNA)
RNA: B3 RNA with C25A, C26G, G28A, A29C, A31U
DNA 1: CAATCTGAATTCCGGTCTCCC
DNA 2: TGGTGGCTACGACGGGATT
B16: AUGGAUC (DNA:RNA)
RNA: B3 RNA with C25A, C26U, A30U, A31C
DNA 1: CAATCTGAATTCCGGTCTCCC
DNA 2: TGGTGGCTACGACGGGATT
B17: GUAACGC (DNA:RNA)
RNA: B1 RNA with U25G, A26U, U27A, U28A, C30G, G31C
DNA 1: CAATCTGAATTCCGGTCTCCC
DNA 2: TGGTGGCTACGACGGGATT
B18: UUGUAUC (DNA:RNA)
RNA: B3 RNA with C25U, C26U, G28U, A30U, A31C
DNA 1: CAATCTGAATTCCGGTCTCCC
DNA 2: TGGTGGCTACGACGGGATT
B19: CUCUCAG (DNA:RNA)
RNA: B1 RNA with U25C, A26U, U27C, C30A
DNA 1: CAATCTGAATTCCGGTCTCCC
DNA 2: TGGTGGCTACGACGGGATT
B20: UCGGUCC (DNA:RNA)
RNA: B3 RNA with C25U, A29U, A30C, A31C
DNA 1: CAATCTGAATTCCGGTCTCCC
DNA 2: TGGTGGCTACGACGGGATT
B21: AGAGGAA (DNA:RNA)
RNA: B3 RNA with C25A, C26G, G27A, A29G
DNA 1: CAATCTGAATTCCGGTCTCCC
DNA 2: TGGTGGCTACGACGGGATT
B22: CAGGGUG (DNA:RNA)
RNA: B3 RNA with C26A, A29G, A30U, A31G
DNA 1: CAATCTGAATTCCGGTCTCCC
DNA 2: TGGTGGCTACGACGGGATT
B23: CGAGCCU (DNA:RNA)
RNA: B3 RNA with C26G, G27A, A29C, A30C, A31U
DNA 1: CAATCTGAATTCCGGTCTCCC
DNA 2: TGGTGGCTACGACGGGATT
B24: ACUGGCG (DNA:RNA)
RNA: B1 RNA with U25A, A26C, U28G, C29G
DNA 1: CAATCTGAATTCCGGTCTCCC
DNA 2: TGGTGGCTACGACGGGATT
B25: AGCAUUA (DNA:RNA)
RNA: B3 RNA with C25A, C26G, G27C, G28A, A29U, A30U
DNA 1: CAATCTGAATTCCGGTCTCCC
DNA 2: TGGTGGCTACGACGGGATT
B26: UACCGUU (DNA:RNA)
RNA: B1 RNA with U27C, U28C, C29G, C30U, G31U
DNA 1: CAATCTGAATTCCGGTCTCCC
DNA 2: TGGTGGCTACGACGGGATT
B27: CUCAGUG (DNA:RNA)
RNA: B3 RNA with C26U, G27C, G28A, A29G, A30U, A31G
DNA 1: CAATCTGAATTCCGGTCTCCC
DNA 2: TGGTGGCTACGACGGGATT
B28: GUUUGUC (DNA:RNA)
RNA: B1 RNA with U25G, A26U, C29G, C30U, G31C
DNA 1: CAATCTGAATTCCGGTCTCCC
DNA 2: TGGTGGCTACGACGGGATT
B29: ACUUAUC (DNA:RNA)
RNA: B3 RNA with C25A, G27U, G28U, A30U, A31C
DNA 1: CAATCTGAATTCCGGTCTCCC
DNA 2: TGGTGGCTACGACGGGATT
B30: ACCACAU (DNA:RNA)
RNA: B3 RNA with C25A, G27C, G28A, A29C, A31U
DNA 1: CAATCTGAATTCCGGTCTCCC
DNA 2: TGGTGGCTACGACGGGATT
B31: AAGAUAG (DNA:RNA)
RNA: B3 RNA with C25A, C26A, G28A, A29U, A31G
DNA 1: CAATCTGAATTCCGGTCTCCC
DNA 2: TGGTGGCTACGACGGGATT

Molecular target: T1, RBFOX1 RRM (Homo sapiens, UniProt Q9NWB1 109-208)
T1 sequence: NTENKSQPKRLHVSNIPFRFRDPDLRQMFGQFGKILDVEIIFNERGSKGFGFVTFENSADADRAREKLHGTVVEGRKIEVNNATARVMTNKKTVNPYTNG
Test: EMSA; HiTS-Eq, 1 nM pool, 10 min; buffer printed only for the single-RNA assays: 10 mM Tris pH 7.5, 150 mM NaCl, 3.4 mM EDTA, 0.001% NP-40, 30 C
Settings: tags: His6 N-terminal (pET28a); label: 5' 32P
How it was run: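 These values rest on relative association constants, computed from read-count changes of each RNA species versus the control reaction and normalised to the cognate motif. Reads came from free RNA recovered by 8% native PAGE after purified RbFox RRM (wild type or mutant) at increasing concentrations was equilibrated for 10 min in 50 µL with 1 nM of a 5′-radiolabelled pool with 7 randomized nucleotides and DNA-annealed flanks.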

Q: For B1, which binding signal is on record?
A: The binding signal was 0.0063 KA relative to UGCAUGU.

Q: How did the binding signal turn out when B2 was run?
A: The binding signal was 0.0075 KA relative to UGCAUGU.

Q: With B3 as the binder, how does the binding signal read?
A: Its binding signal is 0.00992 KA relative to UGCAUGU.

Q: How did the binding signal turn out when B4 was run?
A: The binding signal was 0.00309 KA relative to UGCAUGU.

Q: For B5, which binding signal is on record?
A: Its binding signal is 0.0302 KA relative to UGCAUGU.

Q: Which binding signal does the source give for B6 here?
A: Its binding signal is 0.0145 KA relative to UGCAUGU.

Q: How did the binding signal turn out when B7 was run?
A: Its binding signal is 0.0256 KA relative to UGCAUGU.

Q: With B8 as the binder, how does the binding signal read?
A: Its binding signal is 0.00816 KA relative to UGCAUGU.

Q: With B9 as the binder, how does the binding signal read?
A: Its binding signal is 0.00626 KA relative to UGCAUGU.

Q: Which binding signal does the source give for B10 here?
A: The binding signal was 0.00562 KA relative to UGCAUGU.

Q: B11 was tested. Which binding signal did it give?
A: The binding signal was 0.00977 KA relative to UGCAUGU.

Q: How did the binding signal turn out when B12 was run?
A: Its binding signal is 0.00949 KA relative to UGCAUGU.

Q: With B13 as the binder, how does the binding signal read?
A: Its binding signal is 0.00237 KA relative to UGCAUGU.

Q: Which binding signal does the source give for B14 here?
A: Its binding signal is 0.0134 KA relative to UGCAUGU.

Q: With B15 as the binder, how does the binding signal read?
A: Its binding signal is 0.00885 KA relative to UGCAUGU.

Q: For B16, which binding signal is on record?
A: Its binding signal is 0.0153 KA relative to UGCAUGU.

Q: B17 was tested. Which binding signal did it give?
A: The binding signal was 0.0122 KA relative to UGCAUGU.

Q: Which binding signal does the source give for B18 here?
A: The binding signal was 0.00973 KA relative to UGCAUGU.

Q: With B19 as the binder, how does the binding signal read?
A: The binding signal was 0.00909 KA relative to UGCAUGU.

Q: With B20 as the binder, how does the binding signal read?
A: The binding signal was 0.00905 KA relative to UGCAUGU.

Q: With B21 as the binder, how does the binding signal read?
A: Its binding signal is 0.00495 KA relative to UGCAUGU.

Q: B22 was tested. Which binding signal did it give?
A: The binding signal was 0.015 KA relative to UGCAUGU.

Q: Which binding signal does the source give for B23 here?
A: The binding signal was 0.00855 KA relative to UGCAUGU.

Q: For B24, which binding signal is on record?
A: Its binding signal is 0.0166 KA relative to UGCAUGU.

Q: B25 was tested. Which binding signal did it give?
A: The binding signal was 0.00395 KA relative to UGCAUGU.

Q: For B26, which binding signal is on record?
A: The binding signal was 0.00599 KA relative to UGCAUGU.

Q: With B27 as the binder, how does the binding signal read?
A: Its binding signal is 0.0114 KA relative to UGCAUGU.

Q: For B28, which binding signal is on record?
A: Its binding signal is 0.0258 KA relative to UGCAUGU.

Q: With B29 as the binder, how does the binding signal read?
A: Its binding signal is 0.00272 KA relative to UGCAUGU.

Q: B30 was tested. Which binding signal did it give?
A: The binding signal was 0.000362 KA relative to UGCAUGU.

Q: B31 was tested. Which binding signal did it give?
A: The binding signal was 0.00864 KA relative to UGCAUGU.
